Laboratory results from the supplement of paper PMC11417369.
± gives the standard deviation of the averaged measurements. This is one part of the list.

Test system: PfAP2-LT AP2 domain (GST-tagged)
Test: gcPBM binding intensity (ln(normalized median fluorescence intensity)); higher = stronger DNA binding
How it was run: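 DNA-binding domains from P. falciparum, fused to GST and produced in E. coli, were put on an Agilent 4 × 180k double-stranded probe array for 1 h in 1× PBS holding 1% milk, 0.2 mg/ml BSA, 0.5% salmon testes DNA and 0.03% Triton X-100. Probes were primer-extended, 36 bp long and drawn from intergenic genomic regions, with negative controls included. After Alexa488 anti-GST antibody detection and a 488 nm scan, binding intensity was set as the highest Masliner-normalised natural-log median intensity across replicate spots of either probe orientation.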

Row | Sequence | gcPBM binding intensity (ln)
1 | ATTATTCCATATTATTGTACTTTAATTTTTTAAACC [XGTACX_site2960] | 8.67 ± 0.44
2 | TTTTTATCAACAAATAATACCATAACTCATATTTAT [CACACA_negctrl_site740] | 8.51 ± 0.48
3 | TATAAAATTTTTAAAAGTACATATTTTACATAATAC [XGTACX_site2193] | 8.27 ± 0.45
4 | GAGAGGTATCAAAAATGTACACATATATATATGTAT [XGTACX_site5611] | 8.94 ± 0.4
5 | TTTTTTCTTTATTATGGTACGTATAAAAAAATTATA [XGTACX_site3433] | 8.2 ± 0.42
6 | ATATATAATATATATTGTACAGGTATGTCTATAAAT [XGTACX_site2243] | 8.91 ± 0.28
7 | ATATATTTTTTTTTTTCACACATTAGGATTCATATA [CACACA_site5758] | 8.76 ± 0.41
8 | ATCATATGTATGGTGGTGCATTATGCATGAATTTTA [GTGCAC_site9798] | 8.89 ± 0.54
9 | TAATAATATATAAAAAGTACATAACAAGATATGAAA [XGTACX_site4921] | 8.77 ± 0.47
10 | AGAAAAAAATAATCATCACACACGGAGAATGTCCAA [CACACA_site2314] | 9.35 ± 0.25
11 | GAAAATAACTAAAATTGTACAAAGAAACATATATTT [XGTACX_site6484] | 8.87 ± 0.48
12 | GATATTCATTATATATGTACATATATGTAATATATA [XGTACX_site2210] | 8.77 ± 0.42
13 | TATATATATCTGTATACACACATACAAATATGTAAA [CACACA_site5950] | 9.01 ± 0.28
14 | TATTAAAGCACCCATGCACACACACTAAGGAAAAGA [CACACA_site7961] | 9.61 ± 0.35
15 | TAAAGAATATTATAAACACACACTTTATAAAGAATT [CACACA_site114] | 8.89 ± 0.28
16 | TGTTGATTTATCCTGTGTACGGATATATATCTTTCA [XGTACX_site7826] | 8.88 ± 0.42
17 | TATATAAAGAAACACACACACACCTTATAATTATTA [CACACA_site4062] | 9.74 ± 0.18
18 | GTAATTATACATATTACACACTCTCTTGATCTTTTT [CACACA_site7756] | 8.97 ± 0.46
19 | TATATAAACCCACCTACACACACAACGTAAATGCAT [CACACA_site8702] | 9.62 ± 0.23

Row | Sequence | gcPBM binding intensity (ln)
20 | ATTATTATATTCAAATGTACTTAATAAACATTTTAA [XGTACX_site3023] | 8.31 ± 0.32
21 | TTTATCTAAATATGTGTGCACTCGTTAATTTTTTTT | 9.07 ± 0.52
22 | ATATTTATAATTTTTTGTACACATTTTTTAAAGATA [XGTACX_site1784] | 8.61 ± 0.39
23 | TATAAGAGAAGAAGAAAAAAAAGGTTTCTATAGAAA [XGTACX_negctrl_site421] | 8.4 ± 0.55
24 | CATATAGTAATATATACACACACTTGTCTTGTAAAA [CACACA_site8238] | 9.15 ± 0.39
25 | AAGAAGCATAAATGTACACACATATTTATATATTAA [CACACA_site1332] | 9.01 ± 0.43
26 | ATAGTATACAGACACACACACACACGGATATAAATA [CACACA_site6914] | 10.1 ± 0.36
27 | ATATATATATATATATGTACTAAATATTCATCCTTA [XGTACX_site6039] | 9.34 ± 0.6
28 | AAGTTTAAGAAATAATTCATATTTACTTCCATCCTC [GTGCAC_negctrl_site494] | 8.54 ± 0.52
29 | TACATATAAATATATAAATATAAATAAATAAATAAA [XGTACX_negctrl_site180] | 8.69 ± 0.45
30 | TTTTTTTTTTTTTTTGCACACACATTGAATTATTAT [CACACA_site198] | 9.37 ± 0.45
31 | AAATGGAAAAGGTGTACACAAAAAAAAGGGAAAAGC [CACACA_site5331] | 9.37 ± 0.5
32 | TTACCAAAAACCTCAAGTACAAAAAATCCCTAATAT [XGTACX_site2313] | 8.71 ± 0.43
33 | CTTTATATATAGTGTACACATTAAACAAATCTCAAT [CACACA_site5845] | 8.73 ± 0.36
34 | TATATATGTATATATGGTACAGAATATTCTACATTA [XGTACX_site5077] | 8.66 ± 0.38
35 | CAATCATTTTATTGTTGTACAGTAATTATGAATTCA [XGTACX_site7508] | 8.54 ± 0.41
36 | TACCACATCGGTAAATGTACTTATAAAAAAAAAAAA [XGTACX_site3364] | 8.41 ± 0.41
37 | CATCCACATATATGTACACACATATATATATATATA [CACACA_site2964] | 9.92 ± 0.21
38 | TATAAACTTAATTTGAGTACTTAATAATAATTTTGT [XGTACX_site3730] | 8.37 ± 0.48

Row | Sequence | gcPBM binding intensity (ln)
39 | AATGGGTTAGCACATACACACCAATATATTATATAT [CACACA_site9011] | 8.98 ± 0.49
40 | ATTTATGATATGTAAACATGCATAAAAATTTCAAAA [TGCATGCA_site858] | 8.56 ± 0.4
41 | TATATATATATATTATGTACGTATCAGTTTGTATGT [XGTACX_site695] | 9.3 ± 0.17
42 | ATTTTTAATATTATTACACACACTAAAAAAAAAAAA [CACACA_site1067] | 8.75 ± 0.38
43 | TTATAAATTAGAGGTACACACAAAAAAAAAAAGAAA [CACACA_site6740] | 8.94 ± 0.48
44 | CACGACATTAACAATACATGCAGAAAAACAAAAAAT [TGCATGCA_site689] | 9.12 ± 0.5
45 | TTGGTACCTATAGATACACACATATATACATATATA [CACACA_site3402] | 8.97 ± 0.35
46 | TAAGAGTAGTTATATACACACATGTATATTATAGTT [CACACA_site6815] | 9.03 ± 0.37
47 | ACATTATATAAATATATACATATATATATATATAAA [GTGCAC_negctrl_site115] | 8.75 ± 0.45
48 | TTTGATAAATGATACACACACAATATTTATAAAATA [CACACA_site7040] | 9.14 ± 0.38
49 | CCCACGTATATTTTGTGTACATAAATAAATAAATAA [XGTACX_site4046] | 8.86 ± 0.45
50 | TCTATTATCCTTTGCACACAAAATAAATGAAAAAAT [CACACA_site3029] | 8.88 ± 0.36
51 | ATATAAGTTTTTTCTCAAAAAGTATAACGAGCATGA [CACACA_negctrl_site1375] | 8.6 ± 0.4
52 | AAACAACAAAAATGATATATATAAAATTTATAATAT [XGTACX_negctrl_site185] | 8.74 ± 0.45
53 | ATGCATAAAAGAAATACACACATAAATATATAAATA [CACACA_site2163] | 9.12 ± 0.35
54 | TATGGATTACACAATTGTACAAGAAAAATGTAAATA [XGTACX_site4040] | 8.88 ± 0.51
55 | TGTCATGATACATACACACACATACACATACACATA [CACACA_site2135] | 9.71 ± 0.29
56 | TTTTTTTCATAATATACACACAAAAAAAAAAAAAAA [CACACA_site3224] | 8.46 ± 0.19
